Drawing on paper PMC9911399, “Two distinct binding modes provide the RNA-binding protein RbFox with extraordinary sequence specificity”, this text covers binding signal for 31 molecules.

First the molecules themselves.
T1: RBFOX1 RRM (Homo sapiens, UniProt Q9NWB1 109-208)
T1 sequence: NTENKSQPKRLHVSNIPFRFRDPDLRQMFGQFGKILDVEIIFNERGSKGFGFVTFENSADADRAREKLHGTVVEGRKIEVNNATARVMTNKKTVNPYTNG

B1: CAACAGU (DNA:RNA)
RNA: GGGAGACCGGAAUUCAGAUUGUCCCAACAGUUUAAAUCCCGUCGUAGCCACCA
DNA 1: CAATCTGAATTCCGGTCTCCC
DNA 2: TGGTGGCTACGACGGGATT
B2: AUCAUAC (DNA:RNA)
RNA: GGGAGACCGGAAUUCAGAUUGUCCAUCAUACUUAAAUCCCGUCGUAGCCACCA
DNA 1: CAATCTGAATTCCGGTCTCCC
DNA 2: TGGTGGCTACGACGGGATT
B3: UAGUGAC (DNA:RNA)
RNA: B2 RNA with A25U, U26A, C27G, A28U, U29G
DNA 1: CAATCTGAATTCCGGTCTCCC
DNA 2: TGGTGGCTACGACGGGATT
B4: CUGGUGA (DNA:RNA)
RNA: B2 RNA with A25C, C27G, A28G, A30G, C31A
DNA 1: CAATCTGAATTCCGGTCTCCC
DNA 2: TGGTGGCTACGACGGGATT
B5: UGGCCAC (DNA:RNA)
RNA: B2 RNA with A25U, U26G, C27G, A28C, U29C
DNA 1: CAATCTGAATTCCGGTCTCCC
DNA 2: TGGTGGCTACGACGGGATT
B6: UUCGGCC (DNA:RNA)
RNA: B2 RNA with A25U, A28G, U29G, A30C
DNA 1: CAATCTGAATTCCGGTCTCCC
DNA 2: TGGTGGCTACGACGGGATT
B7: UAGUGGA (DNA:RNA)
RNA: B1 RNA with C25U, A27G, C28U, A29G, U31A
DNA 1: CAATCTGAATTCCGGTCTCCC
DNA 2: TGGTGGCTACGACGGGATT
B8: CGGUGGG (DNA:RNA)
RNA: B1 RNA with A26G, A27G, C28U, A29G, U31G
DNA 1: CAATCTGAATTCCGGTCTCCC
DNA 2: TGGTGGCTACGACGGGATT
B9: UCGGCUA (DNA:RNA)
RNA: GGGAGACCGGAAUUCAGAUUGUCCUCGGCUAUUAAAUCCCGUCGUAGCCACCA
DNA 1: CAATCTGAATTCCGGTCTCCC
DNA 2: TGGTGGCTACGACGGGATT
B10: GCUGCAU (DNA:RNA)
RNA: B9 RNA with U25G, G27U, U30A, A31U
DNA 1: CAATCTGAATTCCGGTCTCCC
DNA 2: TGGTGGCTACGACGGGATT
B11: AAUCUUG (DNA:RNA)
RNA: B2 RNA with U26A, C27U, A28C, A30U, C31G
DNA 1: CAATCTGAATTCCGGTCTCCC
DNA 2: TGGTGGCTACGACGGGATT
B12: AAGUUAU (DNA:RNA)
RNA: B2 RNA with U26A, C27G, A28U, C31U
DNA 1: CAATCTGAATTCCGGTCTCCC
DNA 2: TGGTGGCTACGACGGGATT
B13: AGUGGCU (DNA:RNA)
RNA: B2 RNA with U26G, C27U, A28G, U29G, A30C, C31U
DNA 1: CAATCTGAATTCCGGTCTCCC
DNA 2: TGGTGGCTACGACGGGATT
B14: GUUGCAA (DNA:RNA)
RNA: B9 RNA with U25G, C26U, G27U, U30A
DNA 1: CAATCTGAATTCCGGTCTCCC
DNA 2: TGGTGGCTACGACGGGATT
B15: AACAUGU (DNA:RNA)
RNA: B2 RNA with U26A, A30G, C31U
DNA 1: CAATCTGAATTCCGGTCTCCC
DNA 2: TGGTGGCTACGACGGGATT
B16: GAACCUC (DNA:RNA)
RNA: B1 RNA with C25G, A29C, G30U, U31C
DNA 1: CAATCTGAATTCCGGTCTCCC
DNA 2: TGGTGGCTACGACGGGATT
B17: GAUAAUA (DNA:RNA)
RNA: B1 RNA with C25G, A27U, C28A, G30U, U31A
DNA 1: CAATCTGAATTCCGGTCTCCC
DNA 2: TGGTGGCTACGACGGGATT
B18: CAGAGAC (DNA:RNA)
RNA: B2 RNA with A25C, U26A, C27G, U29G
DNA 1: CAATCTGAATTCCGGTCTCCC
DNA 2: TGGTGGCTACGACGGGATT
B19: GCCACGC (DNA:RNA)
RNA: B2 RNA with A25G, U26C, U29C, A30G
DNA 1: CAATCTGAATTCCGGTCTCCC
DNA 2: TGGTGGCTACGACGGGATT
B20: UUCGAAC (DNA:RNA)
RNA: B2 RNA with A25U, A28G, U29A
DNA 1: CAATCTGAATTCCGGTCTCCC
DNA 2: TGGTGGCTACGACGGGATT
B21: AGAUAGG (DNA:RNA)
RNA: B1 RNA with C25A, A26G, C28U, U31G
DNA 1: CAATCTGAATTCCGGTCTCCC
DNA 2: TGGTGGCTACGACGGGATT
B22: AUAAAUU (DNA:RNA)
RNA: B2 RNA with C27A, U29A, A30U, C31U
DNA 1: CAATCTGAATTCCGGTCTCCC
DNA 2: TGGTGGCTACGACGGGATT
B23: UACUAUA (DNA:RNA)
RNA: B9 RNA with C26A, G27C, G28U, C29A
DNA 1: CAATCTGAATTCCGGTCTCCC
DNA 2: TGGTGGCTACGACGGGATT
B24: GAGCUCU (DNA:RNA)
RNA: B1 RNA with C25G, A27G, A29U, G30C
DNA 1: CAATCTGAATTCCGGTCTCCC
DNA 2: TGGTGGCTACGACGGGATT
B25: UUCAGAU (DNA:RNA)
RNA: B2 RNA with A25U, U29G, C31U
DNA 1: CAATCTGAATTCCGGTCTCCC
DNA 2: TGGTGGCTACGACGGGATT
B26: GCAUAUC (DNA:RNA)
RNA: B1 RNA with C25G, A26C, C28U, G30U, U31C
DNA 1: CAATCTGAATTCCGGTCTCCC
DNA 2: TGGTGGCTACGACGGGATT
B27: CGAAAGC (DNA:RNA)
RNA: B1 RNA with A26G, C28A, U31C
DNA 1: CAATCTGAATTCCGGTCTCCC
DNA 2: TGGTGGCTACGACGGGATT
B28: ACGGAUC (DNA:RNA)
RNA: B9 RNA with U25A, C29A, A31C
DNA 1: CAATCTGAATTCCGGTCTCCC
DNA 2: TGGTGGCTACGACGGGATT
B29: UCUUCGU (DNA:RNA)
RNA: B9 RNA with G27U, G28U, U30G, A31U
DNA 1: CAATCTGAATTCCGGTCTCCC
DNA 2: TGGTGGCTACGACGGGATT
B30: GUUUCGU (DNA:RNA)
RNA: B1 RNA with C25G, A26U, A27U, C28U, A29C
DNA 1: CAATCTGAATTCCGGTCTCCC
DNA 2: TGGTGGCTACGACGGGATT
B31: CCCGAGA (DNA:RNA)
RNA: B1 RNA with A26C, A27C, C28G, U31A
DNA 1: CAATCTGAATTCCGGTCTCCC
DNA 2: TGGTGGCTACGACGGGATT

Where a chain is given by its changes, count along the chain named. The list shows a part of the results.

The target in this test is T1, RBFOX1 RRM. Briefly: EMSA; HiTS-Eq, 1 nM pool, 10 min; buffer printed only for the single-RNA assays: 10 mM Tris pH 7.5, 150 mM NaCl, 3.4 mM EDTA, 0.001% NP-40, 30 C. The conditions noted are these: tags: His6 N-terminal (pET28a); label: 5' 32P. Summed up:
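Purified RbFox RRM, wild type or mutant, was incubated for 10 min in 50 µL with 1 nM of a 5′-radiolabelled RNA pool carrying 7 randomized nucleotides, whose flanks were annealed to DNA oligonucleotides, over a series of increasing protein concentrations. Unbound RNA was resolved on 8% native PAGE, cut out, reverse-transcribed, barcoded by PCR and sequenced on an Illumina HiSeq 2500. Relative association constants were derived from changes in read counts for each RNA species versus the control reaction and normalised to the cognate motif.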
Take B1: the binding signal is 0.00195 KA relative to UGCAUGU.

Regarding B2, the binding signal was 0.00032 KA relative to UGCAUGU.

For the molecule B3, the binding signal was 0.00173 KA relative to UGCAUGU.

Take B4: the binding signal is 0.0173 KA relative to UGCAUGU.

Consider B5, for which the binding signal is 0.0117 KA relative to UGCAUGU.

Regarding B6, the binding signal is 0.0171 KA relative to UGCAUGU.

Turning to B7, the binding signal was 0.00304 KA relative to UGCAUGU.

In the case of B8, the binding signal is 0.00823 KA relative to UGCAUGU.

With B9, the binding signal was 0.0186 KA relative to UGCAUGU.

As to B10, the binding signal is 0.0278 KA relative to UGCAUGU.

In the case of B11, the binding signal was 0.00505 KA relative to UGCAUGU.

As for B12, the binding signal was 0.00257 KA relative to UGCAUGU.

With B13, the binding signal was 0.0216 KA relative to UGCAUGU.

Regarding B14, the binding signal is 0.017 KA relative to UGCAUGU.

For the molecule B15, the binding signal is 0.00671 KA relative to UGCAUGU.

Take B16: the binding signal is 0.00399 KA relative to UGCAUGU.

Take B17: the binding signal is 0.00856 KA relative to UGCAUGU.

With B18, the binding signal was 0.00668 KA relative to UGCAUGU.

With B19, the binding signal was 0.0115 KA relative to UGCAUGU.

Turning to B20, the binding signal was 0.0137 KA relative to UGCAUGU.

On to B21, for which the binding signal is 0.0145 KA relative to UGCAUGU.

In the case of B22, the binding signal was 0.000906 KA relative to UGCAUGU.

Take B23: the binding signal was 0.00337 KA relative to UGCAUGU.

In the case of B24, the binding signal was 0.0127 KA relative to UGCAUGU.

As to B25, the binding signal was 0.0118 KA relative to UGCAUGU.

On to B26, for which the binding signal is 0.00606 KA relative to UGCAUGU.

For the molecule B27, the binding signal is 0.00459 KA relative to UGCAUGU.

As for B28, the binding signal is 0.00949 KA relative to UGCAUGU.

For the molecule B29, the binding signal was 0.016 KA relative to UGCAUGU.

Turning to B30, the binding signal is 0.0212 KA relative to UGCAUGU.

Consider B31, for which the binding signal was 0.0032 KA relative to UGCAUGU.
